Variants at the background level are over-represented here. Bounds are passed on as bounds.

The labels stand for the following.
B1: TPR 5TU (parent)
chain: GGAUCUUCUCGAUCUAACAAAAAAGACAAAUCUGCCACAAAGCUUGAGAGCAUCUUCGGAUGCAGAGGCGGCAGCCUUCGGUGGCGCGAUAGCGCCAACGUUCUCAACUAUGACACGCAAAACGCGUGCUCCGUUGAAUGGAGUUUAUCAUG

The variants in this series derive from B1. The series is described as follows: polymerase ribozyme fitness, log enrichment relative to wild type (log ratio); higher = more active; in vitro selection for triplet polymerase activity. The gist of the method:
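The heterodimeric triplet polymerase ribozyme's subunits were each mutagenized into PCR-built libraries and transcribed. Every library was selected once, in triplicate, by annealing with a biotinylated primer, the partner subunit and triplets, incubating frozen at −7 °C, gel-excising extended constructs, capturing on streptavidin beads and running RT-PCR. Input and output libraries were Illumina-sequenced, with genotypes kept only at ≥10 input reads and ≥1 read per output. Fitness, from inverse-variance-weighted replicate averages, is the base-2 logarithm of genotype enrichment over wild-type enrichment.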
For C14U A73G G94C U139C, the “polymerase ribozyme fitness (log ratio)” value is ≤ -4.2. For A16U A23G G62A G86C C105U the value was ≤ -4.2. To A16U A23U A37U A41G G88C belongs ≤ -4.2; to A16G G25U A150G, -3.86.

With A16G A22G C27A A49C C57U G59C C85U C118A C129U, the “polymerase ribozyme fitness (log ratio)” value is ≤ -4.2. Take U15G U56G U77C C87G G94A U104G A106U C123U: the “polymerase ribozyme fitness (log ratio)” value is ≤ -4.2. For U15G C116U the value was 0.239.

For A16C C51G U77G C87A C103A U109A, the “polymerase ribozyme fitness (log ratio)” value is ≤ -4.2.

Turning to C14U A40U A66C G71C A142C, the “polymerase ribozyme fitness (log ratio)” value is ≤ -4.2. For A16C U33A G58U C75U C85A G94U the value was ≤ -4.2; for U15A U33A C38U U44G G84U A142G, ≤ -4.2. To U15A A19C A52G G83A C103G belongs -3.83; to A16C A29G G68A G83C C99A, ≤ -4.2; to A16C G94A C116G, -0.496. To U15A A47G U56A C57U G124C C149U belongs -2.48; to C14U G50C A89G C99G U148C U151A, ≤ -4.2; to U15G C85U C87A, ≤ -4.2. Regarding A16U A39U U55A U56A G86A, the “polymerase ribozyme fitness (log ratio)” value is ≤ -4.2. In the case of A16G A28U G34U C69U C93G C105G C116U, the “polymerase ribozyme fitness (log ratio)” value is ≤ -4.2.

As to C14U C57U, the “polymerase ribozyme fitness (log ratio)” value is -1.27. Regarding A16G G83U G92A C96U, the “polymerase ribozyme fitness (log ratio)” value was ≤ -4.2. Turning to A16G C32U C72A C76U C85G A107U, the “polymerase ribozyme fitness (log ratio)” value was ≤ -4.2. To U15G U55A A97G C105U A107G A113G C131G belongs ≤ -4.2; to U15G A47C C57U C96A C108G, ≤ -4.2; to A16G A23U C72A C87A C93U G126A, ≤ -4.2. As for A16G C85U C118G G140A, the “polymerase ribozyme fitness (log ratio)” value is ≤ -4.2. Turning to C14U C35G G58A G71C G84A A110G, the “polymerase ribozyme fitness (log ratio)” value is ≤ -4.2. For U15G A39C A49C G84U C108U U130G the value was ≤ -4.2; for A16C A17C A20U A30U A37C U55G C93G C103A A119G, ≤ -4.2.

In the case of A16G C54U C76A C93U A97G C103U C123U G128C, the “polymerase ribozyme fitness (log ratio)” value is ≤ -4.2. To C14U A39G U55A A66C C116U U148C belongs ≤ -4.2; to A16C C18A C35G U55A C57A U77G A106G A110G G140U A150G, ≤ -4.2. To U15G A20U C27A A29C A40U U61A G86U C103G C132A G140A belongs ≤ -4.2. Consider U15G U44A A60G U61A G62U C87G A91G C96A A110G U146C, for which the “polymerase ribozyme fitness (log ratio)” value was ≤ -4.2. To A16G A19U C57A C87A G126U belongs ≤ -4.2; to A16G G83U A107U A142C, ≤ -4.2. On to U15A A66G C75U G100A A106G C125G G152A, for which the “polymerase ribozyme fitness (log ratio)” value is ≤ -4.2. For A16G A17U G34C A47U C87U, the “polymerase ribozyme fitness (log ratio)” value is ≤ -4.2. For U15C C36A A60U C85G C116U the value was ≤ -4.2; for A16U A60C U61A A66C, ≤ -4.2; for A16U C18G U53A C85G U109G A120G, ≤ -4.2. As to A16C A24C A37C A40C C95U, the “polymerase ribozyme fitness (log ratio)” value is ≤ -4.2.

In the case of A16G G42A A52G C95U C96A C99G, the “polymerase ribozyme fitness (log ratio)” value is ≤ -4.2. To A16G G83U U139G belongs -1.17; to A16C A26U, -2.62; to U15G A19U C54U G68U C85G A91U G126U G128U, ≤ -4.2. For A16U C51A C85G C96A A106G the value was ≤ -4.2.

For the variant U15C C36A G59A C87G A113U G143C, the “polymerase ribozyme fitness (log ratio)” value is ≤ -4.2. To C14U C35G U53A C76U G92C A120U U148A belongs ≤ -4.2; to A16C A21C C57A G88U C103G, ≤ -4.2; to C14U A30U A39C A52G A64G A91U G94A C99A U104A A110U, ≤ -4.2. Regarding A16C G141A, the “polymerase ribozyme fitness (log ratio)” value was -0.406.

In the case of U15C G34C C57A G84U A98U, the “polymerase ribozyme fitness (log ratio)” value was -2.33. Turning to A16U A41C G62A G67A C87U A107G G141C G152A, the “polymerase ribozyme fitness (log ratio)” value is ≤ -4.2.

In the case of A16G U144G, the “polymerase ribozyme fitness (log ratio)” value was 0.162.

For the variant A16G C149G, the “polymerase ribozyme fitness (log ratio)” value was -3.97. Regarding A16G C38A U90G, the “polymerase ribozyme fitness (log ratio)” value is ≤ -4.2. To A16G A91U belongs ≤ -4.2; to U15C A40U G83A C87A A142U C149U, ≤ -4.2. To A16C C32A C51U A91U U104C U145A belongs ≤ -4.2; to A16C A22U A39U U56G U61A A91U, ≤ -4.2; to C14U C63U G94C G143U, ≤ -4.2. For U15C G88A U102G the value was ≤ -4.2; for A16U A22G A30U U45A A49G G143C, ≤ -4.2; for A16C C32U, -2.43. In the case of A16G G42C C54G G70A C87A C99U A113C G141U U151C, the “polymerase ribozyme fitness (log ratio)” value is ≤ -4.2.

Consider U15A A26C G34U C105G G143C, for which the “polymerase ribozyme fitness (log ratio)” value was ≤ -4.2. To U15G A26G A52U U53A G65A G80U C87G C96G A97G C108G belongs ≤ -4.2; to A16U A28C A52G C87A U102G A150C, ≤ -4.2; to U15G A41C G68U C79U G80A A119U, ≤ -4.2. For C14U C18G A40G G74A G83C the value was ≤ -4.2; for A16U C51U A60G A89U C93U G117U A121C A138G G141C, ≤ -4.2; for C14U G46A C54A C132A, ≤ -4.2. For A16C A64G A66U G68C G92U the value was ≤ -4.2; for U15G A26U C38G G42A U44A C95G C99U, ≤ -4.2; for U15G A28C G83U U148G, ≤ -4.2. As for U15A C27G U55A C57G G94U C105U G136A G143U, the “polymerase ribozyme fitness (log ratio)” value is ≤ -4.2. Consider U15A C54U G92A, for which the “polymerase ribozyme fitness (log ratio)” value is -3. For A16U C38U A60C G80U A97G the value was ≤ -4.2.

As to U15G C87U G88C A120G, the “polymerase ribozyme fitness (log ratio)” value is ≤ -4.2. A16G A17G C18A G58C A60G C95A U144C A150C: the “polymerase ribozyme fitness (log ratio)” value is ≤ -4.2. To C14U U53G G68C G84U belongs ≤ -4.2; to C14U C35A A73U C75G U78A A89G C93G C95A U146G, ≤ -4.2; to A16C A17C G25U C79A C87A A150G, ≤ -4.2.
